Among all 420,000 compounds or so, about 64,000 (15%) were called active. The inconclusive results got no clear call from the source; some entries with a clear call stand among them for comparison. Calls follow the shape of the dose curve; as a rule, active = well fitted inhibition curve with a large enough effect; inconclusive = small, poorly fitted or top-dose-only effect; inactive = flat fitted curve, though single readings scatter. Potencies of inconclusive entries are left out as doubtful fits.
Assay: qHTS for Inhibitors of human tyrosyl-DNA phosphodiesterase 1 (TDP1): qHTS in cells in absence of CPT; also: nearly all actives have a fitted effect of over 55% in size
Settings: DT40 Tdp1-/- hTDP1 cells, no CPT, ATP luminescence, 48 h; activity change, negative = growth inhibition: at 46.2 µM (top of the series) unless noted
Summary of the method: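 A cellular qHTS used chicken DT40 cells lacking endogenous Tdp1 but carrying stably transfected human TDP1. Compounds were applied without camptothecin, and cell growth kinetics were judged by ATP-dependent luminescence after ≥48 hr.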
% is scaled to controls: 0 for no effect and ±100 for the full control effect; potency is read from the fitted curve at half-maximal effect; tags tell the direction and shape of the fitted curve.

| SMILES | Potency | activity change, negative = growth inhibition |
| --- | --- | --- |
| CCCCC(=Nc1ccc(N)cc1)C1=C(O)C(C(=O)OC)C(C)(C)CC1=O (stereo not drawn) | inconclusive [inhibitor, single point] |  |
| Cc1ccc(S(=O)(=O)N(CCc2ccccc2)CC(=O)Nc2cc(C)ccc2C)cc1 | active: 16.4 µM |  |
| Cc1ccc(Cl)cc1NC(=O)CC(O)(C(F)(F)F)C(F)(F)F | inconclusive [inhibitor, single point] |  |
| O=C(Nc1ccc(Cc2nc3ccccc3s2)cc1)c1ccncc1 | active: 11.6 µM |  |
| COCCNS(=O)(=O)c1cc(C)c(C)cc1C |  | inactive: -20.1% |
| Cc1cccc(NC(=O)CS(=O)(=O)c2nc(-c3ccccc3)cn2-c2cccc(Cl)c2)c1C | active: 18.4 µM |  |
| CCC1(C)Cc2c(sc3nc(NN)n(C)c(=O)c23)CO1 (stereo not drawn) | inconclusive [inhibitor, single point] |  |
| Cc1cnc(NC(=O)c2cccs2)s1 |  | inactive: -25% |
| COc1ccc(OC)c(NC(=O)CN2CCc3ccccc3C2)c1 | inconclusive [inhibitor, single point] |  |
| COc1cc(Cl)cc(/C=N\NC(=O)c2ccc3c(c2)OCO3)c1O |  | inactive: -96.7% |
| CC(=O)c1cccc(NC(=S)Nc2ccn(Cc3cccc4ccccc34)n2)c1 | inconclusive [inhibitor, single point] |  |
| CC1CCC(C(C)C)C(OCC(O)CN2CCOCC2)C1 (stereo not drawn) |  | inactive: -44.2% |
| O=C(Nc1ccc2nc(-c3cccs3)[nH]c2c1)c1cccs1 | active: 23.1 µM |  |
| O=c1[nH]c2c(s1)C(c1ccc(O)cc1)C1C3CCC(C3)C1S2 (stereo not drawn) | inconclusive [inhibitor, single point] |  |
| Cc1ccccc1C(C(=O)NC1CCCC1)N(C(=O)Cc1cccs1)c1ccc2c(c1)OCCO2 (stereo not drawn) | inconclusive [inhibitor, single point] |  |
| COc1ccc(S(=O)(=O)Nc2ccccc2OC)cc1NC(=O)c1cc2ccccc2oc1=O | inconclusive [inhibitor, full curve] |  |
| O=S(=O)(NCc1nc(-c2ccccc2)no1)c1ccc(F)cc1 |  | inactive: -6.08% |
| Cc1cc(OCC(=O)OCC(=O)NC2CCS(=O)(=O)C2)ccc1Cl (stereo not drawn) |  | inactive: 2.14% |
| CCC(=O)c1cc(F)c(N2CCN(S(=O)(=O)c3ccc(C)cc3)CC2)cc1C | active: 20.6 µM |  |
| O=C(NC1CC(=O)N(c2ccc(Cl)cc2)C1)c1ccc2c(c1)OCO2 (stereo not drawn) | inconclusive [inhibitor, single point] |  |
| CCOc1ccccc1NC(=O)c1nc2nc(C)cc(C(F)F)n2n1 | inconclusive [inhibitor, partial curve] |  |
| COc1cccc(N2CCN(C(=O)C3CCN(S(=O)(=O)c4c(C)noc4C)CC3)CC2)c1 | inconclusive [inhibitor, single point] |  |
| COc1cccc(-c2nc(CS(=O)(=O)CC(=O)Nc3c(C)cc(C)cc3C)c(C)o2)c1 | active: 23.1 µM |  |
| COc1ccc(S(=O)(=O)N(CCCN2CCCC2=O)Cc2cc3c(C)ccc(C)c3[nH]c2=O)cc1 | inconclusive [inhibitor, partial curve] |  |
| COc1ccc(C(=O)N/C(=C/c2ccccc2F)C(=O)NCCN2CCOCC2)cc1OC |  | inactive: 32.8% |

| SMILES | Potency | activity change, negative = growth inhibition |
| --- | --- | --- |
| CCc1ccc(NC(=O)Nc2cccs2)cc1 | active: 14.6 µM |  |
| Cc1cc(Cl)ccc1N1C(=O)CC(SCCC(=O)O)C1=O (stereo not drawn) |  | inactive: -7.11% |
| CC1CCN(Cc2nnnn2CCCC(=O)N(C)C2CCOC2)CC1 (stereo not drawn) |  | inactive: 17.8% |
| COc1ccc(OC)c(Nc2nc(NCc3ccco3)c3ccccc3n2)c1 | active: 23.1 µM |  |
| COc1ccc(-c2nn(C)c(=O)c3ccccc23)cc1CNC(=O)c1ccco1 |  | inconclusive: -33.4% [inhibitor] |
| NC1=NC2(CCCCC2)N(c2ccc(F)cc2F)C(N)=N1 |  | inactive: -19.6% |
| CSc1ccc(CCNC(=O)CN2C(=O)c3cccnc3Oc3ccc(C)cc32)cc1 | active: 29.1 µM |  |
| CCOC(=O)CCNC(=O)N1CCCC(C(=O)c2cccc(OC(C)C)c2)C1 (stereo not drawn) | inconclusive [inhibitor, single point] |  |
| N=c1n(CCN2CCCCC2)c2ccccc2n1CC(O)COc1ccc(Cl)cc1Cl (stereo not drawn) | active: 4.61 µM |  |
| COc1ccc2c(c1OC)C(=O)N(c1cccc(C(F)(F)F)c1)C2 | inconclusive [inhibitor, single point] |  |
| O=C(Nc1cccc(S(=O)(=O)N2CCOCC2)c1)c1ccc(Cl)c([N+](=O)[O-])c1 | inconclusive [inhibitor, single point] |  |
| CC(=O)Oc1ccc(OC(C)=O)c2c1CC(C)=C(C)C2 | active: 13 µM |  |
| CCN1CCN(S(=O)(=O)c2ccc(Cl)c(C(=O)Nc3nnc(CC(C)C)s3)c2)CC1 | inconclusive [inhibitor, single point] |  |
| CCN(C1CCCCC1)S(=O)(=O)c1ccc(S(=O)(=O)NCc2ccncc2)cc1 | active: 9.2 µM |  |
| FC(F)(F)C12CC(c3ccccc3)=NCCN1CCN2 (stereo not drawn) | inconclusive [inhibitor, full curve, poor fit] |  |
| COc1ccc(Cl)cc1N=Cc1c(O)c2ccccc2oc1=O | inconclusive [inhibitor, partial curve] |  |
| CCn1nc(CC(C)C)cc1C(=O)N1CCCC(Nc2ccc(F)cc2)C1 (stereo not drawn) | inconclusive [inhibitor, single point] |  |
| Fc1ccccc1Nc1nc2ccccc2n2nnnc12 | inconclusive [inhibitor, single point] |  |
| Cc1cc(S(=O)(=O)c2ccc(Cl)cc2)nc(S(=O)(=O)c2ccc(Cl)cc2)c1C#N | active: 0.651 µM |  |
| C[C@@H](O)CNC(=O)c1[nH]cnc1C(=O)Nc1ccc(CNC(=O)OC(C)(C)C)cc1 | inconclusive [inhibitor, single point] |  |
| CCOc1cc(/C=C2/C(=N)N3C=CSC3=NC2=O)ccc1OCCCOc1ccccc1C | active: 8.2 µM |  |
| CCOc1cc(C(c2c(C)[nH][nH]c2=O)c2c(C)[nH][nH]c2=O)ccc1OCc1ccc([N+](=O)[O-])cc1 | inconclusive [inhibitor, single point] |  |
| CCCN(CCC)CCCNC(=O)c1cc2cc3ccc(Cl)cc3nc2o1 | inconclusive [inhibitor, single point] |  |
| Cc1ccc(CN2CCN(CC(=O)NCc3ccc(Cl)cc3)C2=O)cc1 |  | inactive: -20% |
| Cc1ccc2c(=O)cc(C(=O)N(Cc3ccc(N(C)C)cc3)C3CCS(=O)(=O)C3)oc2c1 (stereo not drawn) | inconclusive [inhibitor, single point] |  |

| SMILES | Potency | activity change, negative = growth inhibition |
| --- | --- | --- |
| CCOC(=O)c1c(N)sc(C(C)=O)c1C |  | inactive: -22.8% |
| S=C(Nc1ccc(Cl)cc1)c1sc(N2CCCCC2)nc1N1CCOCC1 | inconclusive [inhibitor, single point] |  |
| COc1ccc(N=C2NN=C(c3c(C)[nH]c4ccccc34)CS2)cc1 | active: 23.1 µM |  |
| CCN(CCNC(=O)Nc1ccc(Cl)cc1)c1ccccc1 | inconclusive [inhibitor, single point] |  |
| COc1ccc(CNC(=O)/C=C/c2ccc(S(=O)(=O)NCc3ccco3)cc2)cc1OC | active: 25.9 µM |  |
| Cc1cc(NC(=O)N(C)CCc2c(C)nn(C)c2C)ccc1Br | inconclusive [inhibitor, single point] |  |
| Cc1ccc(S(=O)(=O)N2CC3(C)CN(S(=O)(=O)c4ccc(C)cc4)CC(C)(C2)C3)cc1 | inconclusive [inhibitor, full curve, poor fit] |  |
| CCN(CC)CCn1c(NCc2cccc(OC)c2OC)nc2ccccc21 | inconclusive [inhibitor, single point] |  |
| COc1c2ccoc2c(OC(C)=O)c2oc(C)cc(=O)c12 | inconclusive [inhibitor, partial curve] |  |
| CCCCc1c(-c2ccccc2OC)ncn1Cc1ccc(Cl)cc1 | active: 11.6 µM |  |
| COc1ccc(-c2cc(-c3ccccc3)c(C#N)c(S(C)(=O)=O)n2)cc1 | inconclusive [inhibitor, single point] |  |
| COc1ccc(Cn2c(SCc3ccc(C(=O)NCc4cccs4)cc3)nc3cccnc32)cc1 |  | inactive: -78.9% |
| CCOc1ccccc1NC(=O)NCc1ccc2c(c1)OCO2 |  | inactive: 6.95% |
| CC(NC(=O)COC(=O)C1CCC1)c1ccccc1 (stereo not drawn) |  | inactive: 1.11% |
| CC(C)OCCCN(CC(O)c1ccccc1)CC(O)c1ccccc1 (stereo not drawn) | inconclusive [inhibitor, single point] |  |
| O=C(NCC1CCCN1S(=O)(=O)c1ccccc1)c1cccc(Cl)c1 (stereo not drawn) | inconclusive [inhibitor, single point] |  |
| O=c1c2ccccc2sn1-c1ccc(Cl)cc1Cl | active: 2.91 µM |  |
| C=CCn1c(COc2ccc(Cl)cc2)nnc1SCc1ccc(C#N)cc1 | inconclusive [inhibitor, single point] |  |
| C=CCNC(=O)/C(=C/c1cccc([N+](=O)[O-])c1)NC(=O)c1ccccc1 |  | inactive: -10.2% |
| CCS(=O)(=O)N1CCN(c2ccnc3cc(Cl)ccc23)CC1 | inconclusive [inhibitor, partial curve, poor fit] |  |
| COc1ccccc1CN1C(=O)CN(C2CCCCCC2)C(=O)C1c1ccc(C)cc1 (stereo not drawn) | active: 20.6 µM |  |
| Cc1cc(F)ccc1NS(=O)(=O)c1c(C)nc2scc(C)n2c1=O | inconclusive [inhibitor, partial curve] |  |
| O=[N+]([O-])c1ccc(-c2csc(N/N=C/c3cccnc3)n2)cc1 | inconclusive [inhibitor, single point] |  |
